Data taken from the supplement of paper PMC4967469.
The IC50 comes from the fitted curve, where viability falls to half of the control; a fit beyond the top or the lowest dose is shown as a bound at that dose. For AUC the same curve is integrated over the 256-fold range of doses and scaled to a fraction; the more sensitive the line, the further below 1. A top dose marked as inferred was calculated from the reported fits. For some assays here: Where an entry number is given, a second screen of the drug exists; the two often differ.

Experiments:
Test in all cases: Viability of human cancer cell lines after 72 h of drug (GDSC screen)
Shikonin = compound: CC(C)=CC[C@@H](O)C1=CC(=O)c2c(O)ccc(O)c2C1=O [Shikonin]; settings: top dose 16 µM; top dose inferred
Protocol: (§1)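 Human cancer cell lines in 384-well plates, medium with 10% serum, drug for 72 h over a 256-fold dose range (nine 2-fold or five 4-fold steps up to the top dose). Adherent lines were fixed and stained with the nucleic acid dye Syto60, suspension lines read with resazurin; signal relative to control wells, capped at 0 and 100%. One two-parameter sigmoid per drug and line, fitted in a mixed model over all curves with the slope shared within a line.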

BMS-536924 = compound: Cc1cc(N2CCOCC2)cc2[nH]c(-c3c(NC[C@@H](O)c4cccc(Cl)c4)cc[nH]c3=O)nc12 [BMS-536924]; settings: top dose 4 µM; screen: GDSC drug entry 1091; top dose inferred
Protocol: as §1

BIRB 0796 = compound: Cc1ccc(-n2nc(C(C)(C)C)cc2NC(=O)Nc2ccc(OCCN3CCOCC3)c3ccccc23)cc1 [BIRB 0796]; settings: top dose 10 µM; top dose inferred
Protocol: as §1

SB-525334 = compound: Cc1cccc(-c2[nH]c(C(C)(C)C)nc2-c2ccc3nccnc3c2)n1 [SB-525334]; settings: top dose 20 µM; top dose inferred
Protocol: as §1

VX-702 = compound: NC(=O)c1ccc(N(C(N)=O)c2c(F)cccc2F)nc1-c1ccc(F)cc1F [VX-702]; settings: top dose 2 µM; top dose inferred
Protocol: as §1

Olaparib = compound: O=C(c1cc(Cc2n[nH]c(=O)c3ccccc23)ccc1F)N1CCN(C(=O)C2CC2)CC1 [Olaparib]
Protocol: as §1

Wee1 inhibitor 681640 = compound: O=C1NC(=O)c2c1c(-c1ccccc1Cl)cc1[nH]c3ccc(O)cc3c21 [Wee1 inhibitor 681640]; settings: top dose 2 µM; top dose inferred
Protocol: as §1

[1] = top dose 5 µM, screen: GDSC drug entry 1017, top dose inferred
[2] = top dose 10 µM, screen: GDSC drug entry 1495

| Cell Line | AUC (Shikonin) | AUC (BMS-536924) | IC50 (BMS-536924) | AUC (BIRB 0796) | IC50 (BIRB 0796) | AUC (SB-525334) | IC50 (SB-525334) | AUC (VX-702) | IC50 (VX-702) | AUC (Olaparib; [1]) | IC50 (Olaparib; [1]) | AUC (Olaparib; [2]) | IC50 (Olaparib; [2]) | AUC (Wee1 inhibitor 681640) | IC50 (Wee1 inhibitor 681640) | IC50 (Shikonin) |
| --- | --- | --- | --- | --- | --- | --- | --- | --- | --- | --- | --- | --- | --- | --- | --- | --- |
| COLO-679 (melanoma, adherent) | 0.258 | 0.887 | > 4 µM | 0.97 | > 10 µM | 0.972 | > 20 µM | 0.97 | > 2 µM | 0.977 | > 5 µM | 0.967 | > 10 µM | 0.931 | > 2 µM |  |
| COLO-680N (oesophagus, adherent) | 0.423 | 0.985 | > 4 µM | 0.984 | > 10 µM | 0.985 | > 20 µM | 0.986 | > 2 µM | 0.983 | > 5 µM | 0.96 | > 10 µM | 0.985 | > 2 µM |  |
| Ca9-22 (head and neck, adherent) | 0.388 | 0.897 | > 4 µM | 0.97 | > 10 µM | 0.98 | > 20 µM | 0.986 | > 2 µM | 0.963 | > 5 µM | 0.922 | > 10 µM | 0.899 | > 2 µM | 0.505 µM |
| Ca-Ski (cervix, adherent) | 0.415 | 0.923 | > 4 µM | 0.89 | > 10 µM | 0.957 | > 20 µM | 0.972 | > 2 µM | 0.971 | > 5 µM | 0.907 | > 10 µM | 0.944 | > 2 µM | 0.567 µM |
| Caov-4 (ovary, adherent) | 0.581 | 0.946 | > 4 µM | 0.914 | > 10 µM | 0.919 | > 20 µM | 0.98 | > 2 µM | 0.98 | > 5 µM | 0.929 | > 10 µM | 0.98 | > 2 µM | 1.84 µM |
| DAN-G (pancreas, adherent) | 0.985 | 0.949 | > 4 µM | 0.966 | > 10 µM | 0.954 | > 20 µM | 0.991 | > 2 µM | 0.961 | > 5 µM |  |  | 0.976 | > 2 µM | > 16 µM |
| DK-MG (glioma, adherent) | 0.659 | 0.947 | > 4 µM | 0.977 | > 10 µM | 0.975 | > 20 µM | 0.978 | > 2 µM | 0.978 | > 5 µM | 0.942 | > 10 µM | 0.978 | > 2 µM | 3.46 µM |
| Detroit562 (head and neck, adherent) | 0.668 | 0.934 | > 4 µM | 0.967 | > 10 µM | 0.984 | > 20 µM | 0.982 | > 2 µM | 0.965 | > 5 µM | 0.971 | > 10 µM | 0.938 | > 2 µM | 2.87 µM |
| EBC-1 (lung squamous cell carcinoma, adherent) | 0.51 | 0.975 | > 4 µM | 0.946 | > 10 µM | 0.957 | > 20 µM | 0.97 | > 2 µM | 0.958 | > 5 µM | 0.884 | > 10 µM | 0.973 | > 2 µM | 1.07 µM |
| ECC10 (stomach, suspension) | 0.49 | 0.751 | 1.37 µM | 0.983 | > 10 µM | 0.881 | > 20 µM | 0.951 | > 2 µM | 0.967 | > 5 µM | 0.95 | > 10 µM | 0.865 | 1.9 µM | 0.936 µM |
| EFO-21 (ovary, adherent) | 0.581 | 0.926 | > 4 µM | 0.951 | > 10 µM | 0.971 | > 20 µM | 0.98 | > 2 µM | 0.98 | > 5 µM | 0.88 | > 10 µM | 0.969 | > 2 µM | 1.83 µM |
| EFO-27 (ovary, adherent) | 0.339 | 0.587 | 0.46 µM | 0.955 | > 10 µM | 0.953 | > 20 µM | 0.955 | > 2 µM | 0.954 | > 5 µM | 0.905 | > 10 µM | 0.921 | > 2 µM | 0.318 µM |
| EGI-1 (biliary tract, adherent) | 0.631 | 0.915 | > 4 µM | 0.979 | > 10 µM | 0.944 | > 20 µM | 0.966 | > 2 µM | 0.964 | > 5 µM | 0.927 | > 10 µM | 0.953 | > 2 µM | 2.56 µM |
| FU97 (stomach, adherent) | 0.44 | 0.867 | 3.78 µM | 0.983 | > 10 µM | 0.886 | > 20 µM | 0.98 | > 2 µM | 0.947 | > 5 µM | 0.919 | > 10 µM | 0.985 | > 2 µM | 0.681 µM |
| FU-OV-1 (ovary, adherent) | 0.456 | 0.843 | > 4 µM | 0.981 | > 10 µM | 0.953 | > 20 µM | 0.973 | > 2 µM | 0.973 | > 5 µM | 0.965 | > 10 µM | 0.981 | > 2 µM | 0.73 µM |
| G-292 Clone A141B1 (osteosarcoma, adherent) | 0.584 | 0.788 | 3.08 µM | 0.868 | > 10 µM | 0.97 | > 20 µM | 0.906 | > 2 µM | 0.95 | > 5 µM | 0.938 | > 10 µM | 0.896 | > 2 µM | 1.95 µM |
| G-361 (melanoma, adherent) | 0.358 | 0.978 | > 4 µM | 0.975 | > 10 µM | 0.938 | > 20 µM | 0.988 | > 2 µM | 0.988 | > 5 µM | 0.947 | > 10 µM | 0.988 | > 2 µM | 0.412 µM |
| G-402 (soft tissue, adherent) | 0.419 | 0.961 | > 4 µM | 0.88 | > 10 µM | 0.83 | 18.7 µM | 0.88 | > 2 µM | 0.915 | > 5 µM | 0.861 | > 10 µM | 0.931 | > 2 µM | 0.559 µM |
